# Reference: PubChem BioAssay AID1458 (National Center for Advancing Translational Sciences (NCATS), 2008)
# The whole screen tested about 210,000 compounds, of which about 5,900 (2.8%) were called active. The inconclusive results got no clear call from the source; some entries with a clear call stand among them for comparison. Calls follow the shape of the dose curve; as a rule, active = well fitted activation curve with a large enough effect; inconclusive = small, poorly fitted or top-dose-only effect; inactive = no such curve, though single readings can be large or run the other way. A potency beside an inconclusive call is a rough fit, not a confirmed value.
# Assay: qHTS Assay for Enhancers of SMN2 Splice Variant Expression; also: nearly all actives have a fitted effect of over 55% in size
# Conditions: HEK293 SMN2-luciferase splicing reporter, luminescence, 30-36 h; series mostly up to 46.1 µM
# Summary of the method: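 qHTS luciferase splicing reporter: luminescence rises when SMN2 exon 7 is included in transfected HEK293 cells. Compound exposure lasted 30-36 h at 37C, with 4.5 mM final sodium butyrate as control, followed by a ONE-Glo read.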
# Potency is read from the fitted curve at half-maximal effect; tags tell the direction and shape of the fitted curve.
row,SMILES,Potency
1,Cc1nn(CC(=O)Nc2nc3ccccc3s2)c(C)c1[N+](=O)[O-],"inconclusive: 5.62 µM [activator, single point]"
2,O=C(Oc1ccc(-c2nc(-c3ccccn3)no2)cc1)c1ccccc1,"inconclusive: 28.2 µM [activator, single point]"
3,CCOC(=O)c1sc(-c2ccccc2)cc1N,"inconclusive: 14.1 µM [activator, partial curve, poor fit]"
4,O=C(Cc1cc(=O)[nH][nH]1)N/N=C/C(Cl)=C/c1ccccc1,"inconclusive: 1.58 µM [activator, partial curve, poor fit]"
5,Cc1ccc(-c2nc3cc(N)ccc3o2)c(C)c1,"inconclusive: 0.501 µM [activator, full curve]"
6,COc1cc(-c2nnc(-c3cccs3)o2)cc(OC)c1OC,"inconclusive: 35.5 µM [activator, partial curve, poor fit]"
7,Nc1nc2c(cnn2CCc2ccccc2)c2nc(-c3ccco3)nn12,"inconclusive: 2.24 µM [activator, partial curve]"
8,CCOC(=O)Cc1nnc(NC(=O)CC)s1,"inconclusive: 0.199 µM [activator, full curve, poor fit]"
9,COCCCNC(=O)c1sc2nc(C)c(C(=O)Nc3ccc(C)cc3C)c(-c3ccc(Br)cc3)c2c1N,inactive
10,Cn1c(/C(C#N)=C/c2ccncc2)nc2ccccc21,inactive
11,Fc1ccc(C2=NNC(=NCc3ccccc3)SC2)cc1F,"inconclusive: 11.2 µM [activator, single point]"
12,COc1ccccc1N1CCN(CC(O)COCCOc2ccc(Br)cc2)CC1 (centres undefined),inactive
13,CC(=O)OCCNC(=O)c1cc2ccccc2oc1=O,"inconclusive: 20 µM [activator, partial curve]"
14,O=C(Nc1ccc2oc(-c3ccccc3)nc2c1)c1ccc2c(c1)OCCO2,inactive
15,Cc1cccc(C(=O)O/N=C2/CC3CCC2(C)C3(C)C)c1 (centres undefined),"inconclusive: 31.6 µM [activator, partial curve, poor fit]"
16,COCC(=O)n1nc(-c2ccccc2)nc1NCc1ccccc1,"inconclusive: 10 µM [activator, partial curve]"
17,O=c1oc(-c2ccccc2)nc2sc3c(c12)CCCC3,"inconclusive: 35.5 µM [activator, single point]"
18,COc1cccc(OCc2cc(=O)n3cc(C)sc3n2)c1,"inconclusive: 0.112 µM [activator, full curve, poor fit]"
19,COc1ccc(C2c3c(ncn(CCN4CCOCC4)c3=N)Oc3ccc4ccccc4c32)cc1 (centres undefined),"inconclusive: 0.282 µM [activator, partial curve]"
20,O=C(Nc1ccon1)c1ccc(N2CCCCC2)c([N+](=O)[O-])c1,active: 14.1 µM
21,CC1Cc2ccccc2N1C(=O)CO/N=C/c1ccccc1OC(F)F (centres undefined),inactive
22,N/C(=N\OC(=O)/C=C/c1ccccc1Cl)c1ccccn1,"inconclusive: 3.16 µM [activator, single point]"
23,CCCCC(=O)Nc1ccc(C(=O)NCCc2ccccc2)cc1,"inconclusive: 14.1 µM [activator, partial curve]"
24,CCOc1ccc(NC(C(=O)Nc2cccc(C(C)=O)c2)c2ccccc2)cc1 (centres undefined),inactive
25,COc1cc(NC(=S)NC(=O)c2ccccc2F)ccc1NC(=O)c1ccco1,"inconclusive: 4.47 µM [activator, partial curve, poor fit]"

row,SMILES,Potency
1,O=C1CN=C(Nc2ccc(Cl)cc2)N1c1ccccc1,"inconclusive: 0.794 µM [activator, partial curve]"
2,S=C(NCC1CCCO1)Nc1ccc(Cl)c(Cl)c1 (centres undefined),"inconclusive: 11.2 µM [activator, partial curve]"
3,CCOCCn1cnc2sc(C(=O)NCC(=O)OCC)c(C)c2c1=O,"inconclusive: 1 µM [activator, partial curve, poor fit]"
4,Cc1ccc(C(=O)NCCSc2ccc(Cl)cc2)cc1S(=O)(=O)Nc1ccccc1,inactive
5,CC(C)CN1CCCC2(CCN(C(=O)c3cccn3C)CC2)C1,inactive
6,O=C(/C=C/Nc1ccccc1F)c1cccs1,active: 2 µM
7,CCCCCNc1nc2c(-c3ccccc3)nnn2c2ccccc12,inactive
8,CCOC(=O)c1ccc2[nH]c3ccccc3c2c1,"inconclusive: 35.5 µM [activator, single point]"
9,O=C(Nc1cccc(F)c1)c1ccc(-c2ccccc2Cl)o1,active: 11.2 µM
10,O=C(CSc1nnc(-c2cccc(Cl)c2)o1)Nc1ccc2c(c1)OCCO2,active: 11.2 µM
11,COc1ccc(NC(=O)Nc2ccc(N(C)C)cc2)cc1,active: 12.6 µM
12,Cc1ccccc1-c1cc(C(=O)n2cccn2)c2cc(Cl)ccc2n1,"inconclusive: 35.5 µM [activator, single point]"
13,CN(C)S(=O)(=O)c1ccc(NC(=O)/C=C/c2ccccc2Cl)cc1,inactive
14,O=C(CN1CCOCC1)Nc1ccccc1,"inconclusive: 7.08 µM [activator, full curve]"
15,COC(=O)c1ccc(COC(=O)c2ccc(N(C)C)cc2)cc1,active: 7.08 µM
16,CS(=O)(=O)N1CC(C(=O)NN)Oc2ccc(Cl)cc21 (centres undefined),"inconclusive: 35.5 µM [activator, single point]"
17,COc1ccc(Nc2nc(C)c(-c3ccccc3)s2)cc1,"inconclusive: 35.5 µM [activator, single point]"
18,CN1CCN(C(=O)CCCOc2cc(=O)n(C)c3ccccc23)CC1,"inconclusive: 3.55 µM [activator, partial curve]"
19,O=C(NCCc1ccccc1)c1ccc(-c2ccccc2Cl)o1,inactive
20,CC(C)Cc1nnc(NC(=O)CC(=O)Nc2ccccc2C(=O)O)s1,inactive
21,CC(C)C(=O)NC(NC(=S)Nc1ccc(S(N)(=O)=O)cc1)C(Cl)(Cl)Cl (centres undefined),"inconclusive: 1 µM [activator, full curve]"
22,FC(F)Oc1ccccc1/C=N/n1cnc2ccccc21,"inconclusive: 8.91 µM [activator, partial curve]"
23,N#Cc1cccc(CS(=O)(=O)c2ccccc2)c1,inactive
24,COc1ccccc1-c1nc(C#N)c(N2CCCCCC2)o1,inactive
25,COc1ccc(NC(=O)c2cccc(OC(F)F)c2)cc1Cl,"inconclusive: 17.8 µM [activator, single point]"

row,SMILES,Potency
1,CCCCN1C(=O)/C(=C2\SC(N3CCCCC3)=NC2=O)c2ccccc21,"inconclusive: 11.2 µM [activator, single point]"
2,C=C(C)CSc1nncn1/N=C/c1ccc(OC)cc1,"inconclusive: 35.5 µM [activator, partial curve]"
3,CCOC(=O)/C=C(\C)Nc1cc(C)nn1-c1ccccc1,"inconclusive: 0.0708 µM [activator, partial curve, poor fit]"
4,COC(=O)[C@H]1[C@H](C(=O)OC)[C@@H](C(=O)OC)N(c2ccc(OC)cc2)[C@@H]1C(=O)OC,"inconclusive: 3.16 µM [activator, single point]"
5,c1cn2cc(CSC3CCCCC3)nc2s1,active: 14.1 µM
6,CCCOc1ccc(CNC(=O)c2cc3oc4ccccc4c3n2C)cc1,"inconclusive: 11.2 µM [activator, single point]"
7,COc1ccc(C(C(=O)NC2CCCC2)N(CC2CCCO2)C(=O)Cn2nnc(-c3ccc(C)o3)n2)cc1 (centres undefined),inactive
8,COc1ccc(S(=O)(=O)Nc2cc(C)ccn2)cc1,inactive
9,CCOc1ccc2nc(SC3CC(=O)N(c4cccc(OC)c4)C3=O)sc2c1 (centres undefined),"inconclusive: 15.8 µM [activator, single point]"
10,Cc1ccc2nc(NCCc3ccc(Cl)cc3)c3nncn3c2c1,"inconclusive: 5.01 µM [activator, single point]"
11,Cc1c(NC(=O)c2cnn3cccnc23)c(=O)n(-c2ccccc2)n1C,"inconclusive: 0.0355 µM [activator, full curve, poor fit]"
12,COc1ccc(Cl)cc1C(=O)Nc1ccccc1N1CCN(C)CC1,"inconclusive: 4.47 µM [activator, single point]"
13,COc1ccccc1CCc1nnc(CCC(=O)NC(C)Cc2cccs2)o1 (centres undefined),"inconclusive: 15.8 µM [activator, single point]"
14,Cc1nc2c(ccc3nc(NC(=O)c4ccc5c(c4)OCCO5)sc32)s1,"inconclusive: 5.62 µM [activator, single point]"
15,COC(=O)c1c(C)nc2ccccc2c1-c1ccccc1,"inconclusive: 5.01 µM [activator, partial curve]"
16,Cc1ccc(C(=O)COC(=O)c2cccc(NC(=O)c3ccc([N+](=O)[O-])cc3[N+](=O)[O-])c2)cc1,"inconclusive: 12.6 µM [activator, partial curve, poor fit]"
17,Cc1cc(O)c(/C=N/Nc2ccccc2Cl)c(=O)o1,inactive
18,O=C(NC1CC1)c1ccc(-c2ccccc2)cc1,active: 11.2 µM
19,O=C(Nc1cc2c(cc1Cl)OCCCO2)c1ccco1,active: 14.1 µM
20,COc1cc(C)nc(N2CCCC(C(=O)NC3CCC(C)CC3)C2)n1 (centres undefined),"inconclusive: 12.6 µM [activator, single point]"
21,CCS(=O)(=O)N1CCN(Cc2ccc([N+](=O)[O-])cc2)CC1,inactive
22,O=C(NCCSc1ccccc1)c1cncc(Br)c1,"inconclusive: 31.6 µM [activator, single point]"
23,CCOc1ccccc1CNC(=O)c1cc2oc3ccccc3c2n1CC,"inconclusive: 22.4 µM [activator, single point]"
24,Cc1cccc(OCCCC(=O)Nc2ccc(N3CCCCC3)cc2)c1C,inactive
